The source gives no read counts; variants with many changes may rest on few reads.
B1: LINE1-mini (parent)
chain: GGCAGAGCUCAACACAGCGUGGCAAAGUGGCUGUGGCUAGACUGCC

Variants of: B1
Assay: self-cleavage, relative activity (ratio to wild type); higher = more cleavage; in vitro, sequencing; the parent is a self-cleaving ribozyme

Question: With AGCAGUGCUCAACACAGCGUGGAAAAGUGGCUGUGGGUAGACUGCC as the variant, how does the self-cleavage read?
Answer: 0.06

Question: Which self-cleavage does the source give for AGCCGAGCUCAACCCAGCGUGGCUAAGUGGCUGUGGCUAGACUGCC here?
Answer: 0.08

Question: Which self-cleavage does the source give for AGCAGAGCUCGACACAUCGUGGCAAAGGGGCUGUGGCUAGACUGCC here?
Answer: 0.06

Question: For AGCCGAGUUUAACACAGCGUGGCAAAGUGGCUGUGGCUCGACUGCU, which self-cleavage is on record?
Answer: 0.12

Question: Which self-cleavage does the source give for AGCCGAGAUCAACACAGCGUGGCAAAGUGGCUGUGACUAGACUUCC here?
Answer: 0.61

Question: With AGCGGAGCUCAACACAGCGUGGCAAAGUGGCUGUGGCAAAACUGCC as the variant, how does the self-cleavage read?
Answer: 0.06

Question: For AGCCGAGCUCAACCCAGCGUGGCAAAGUGGCUAUUGCUAGACUGCG, which self-cleavage is on record?
Answer: 0.05

Question: Which self-cleavage does the source give for AGCAGAGCUCAACACAGCGUGGCAUAGUGGCUGUGUCUAGACUGCC here?
Answer: 0.07

Question: Which self-cleavage does the source give for AGCCGAGCUCAACACAGCGUUGCCAAGAUGCUGUGGCUAGACUGCC here?
Answer: 0.02

Question: With AGCAGAGCUCAACUCAGCGUGGCAAAGUGGCUGUGGCUAGACUCCC as the variant, how does the self-cleavage read?
Answer: 0.26

Question: For AGCAGCGCUCAACACAGCGUGCCAAAGUGGCUGUGGCUAGACUACC, which self-cleavage is on record?
Answer: 0.4

Question: With AGCAGAGCUCUAUACAGCGUGGCAAAGUGGCUGGGGCUAGACUGCC as the variant, how does the self-cleavage read?
Answer: 0

Question: Which self-cleavage does the source give for AGCAGAGCUCAACACCGCGUGGCAAAGGGGCUGUGGCUAGACUGCC here?
Answer: 0.39

Question: With AGCAGAGCUCCACACAGCGUGACAAAGUGGCUGUGGCUCGACUGCC as the variant, how does the self-cleavage read?
Answer: 0.01

Question: Which self-cleavage does the source give for AGCGGAGCUCAACACAGAGUGGCAAAGUGGCUGAGGCUAGACUGCC here?
Answer: 0.03

Question: Which self-cleavage does the source give for AGCCGCGCUCAACACAGCGUGGCAAAGUGGCUGUGGCUAGACUGCC here?
Answer: 0

Question: Which self-cleavage does the source give for AGCAGAGCUCAACACCGCGUGGCAAAGUGUCUGUCGGUAGACUGCC here?
Answer: 0.12

Question: With AGCAGAGCUCAACCCAGCGUGGCAAAGUGGGUGUGACUAGAUUGCC as the variant, how does the self-cleavage read?
Answer: 0.01

Question: Which self-cleavage does the source give for AGCAGAGCUCAGCACAGCGUGGCAAAGUAGCUGUGGCUAGACUGCC here?
Answer: 0.03

Question: With AGCCGAGCUCAACACAGCGUGGCCAAGUGGCUGUGGCUAGACUGCC as the variant, how does the self-cleavage read?
Answer: 0.09

Question: For AGCAGAGCUCUACACAGCGUGGCAAAGUGGAUGUGGCUAGACUGCC, which self-cleavage is on record?
Answer: 0.04

Question: Which self-cleavage does the source give for AGCAGAGCUCUACACAGCGUGGCAAAGUGGGUGUGGCUAGACUGCC here?
Answer: 0.02

Question: With AGCAGAGCUCCACUCAGCGUGGCAAAGUGGGUGUGGCUAGACUGCC as the variant, how does the self-cleavage read?
Answer: 0.04

Question: With AGCAGUGCUCAACCCAGCGUGGCAAAGUGGCUUUGGCUAGACUGCC as the variant, how does the self-cleavage read?
Answer: 0.05

Question: For AGCAGAGCUCACCACAGCGUUGCAGAGUGGCUGUGGCUAGACUGAC, which self-cleavage is on record?
Answer: 0.01

Question: Which self-cleavage does the source give for AGCAGCGCUCAACACAGAGUGGCAAAGUGGCUGUGGCUAGACUGCA here?
Answer: 0.27

Question: With AGCAGCGCUCAAGACAGCGUGGCAAAGUGGCUGUGGCUAGACUGCC as the variant, how does the self-cleavage read?
Answer: 0.07

Question: With AGCGGAGCGCAACACAGCGUGGCAAAGUGGCUGUGGCUAGACUGCC as the variant, how does the self-cleavage read?
Answer: 1.16

Question: Which self-cleavage does the source give for AGCAGAGCUCCACACAGCGUGGCAAAGUGGCUGUGGUUAGACUGCC here?
Answer: 0.01

Question: Which self-cleavage does the source give for AGCAGCCCUCAACACAGCGUGGACAAGUGGCUGUGGCUAGACUGCC here?
Answer: 0.14

Question: With AGCCCAGCUCAACACAGCGUGGCAAAGUGGCUGUGGCUAGACUGCC as the variant, how does the self-cleavage read?
Answer: 0.04

Question: For AGCAGAGCUCAACACAGCGUGGCCAAGUGGCUGGGGAUUGACUGCC, which self-cleavage is on record?
Answer: 0.03

Question: With AGCUGAGCUCGACACAGCCUGGCAAAGUGGCUGGGGCUAGACUGCC as the variant, how does the self-cleavage read?
Answer: 0.05

Question: For AGCAGAGCUCAACACAGCGUGGCAGAGUGCCUGUGGCUAGACUGCC, which self-cleavage is on record?
Answer: 0.24

Question: With AGCAGAGCUCAACACCGCGUGGCAAAGUGGCUGUGGCUAGACUGUG as the variant, how does the self-cleavage read?
Answer: 0.13

Question: With AGCAGAGCUCACCACAGCGUGGCAAAGUGGCUGUGUCUAGACUGUC as the variant, how does the self-cleavage read?
Answer: 0.03

Question: Which self-cleavage does the source give for AGCAGUGCUCAACACAGCGUGGCAAGGUGGCUGUGGCUAGACUGCC here?
Answer: 0.4

Question: With AGCAGAGCUCAACACAGCGUGGCUAAGUUGAUGUGGCUAGACUGCC as the variant, how does the self-cleavage read?
Answer: 0.19

Question: Which self-cleavage does the source give for AGCCGAGCUCAACACAGCGUAGCAAAGCGGCUGUGGCUAGACUACC here?
Answer: 0.14

Question: For AGCAGAGCUCAUCACAGCGUGGCAAAGUGGCUGCGGCUAGCCUGCC, which self-cleavage is on record?
Answer: 0.03

Question: Which self-cleavage does the source give for AGCAGUGCUCAACACAGCGUAGCAAAGUGGCUGUGGCUAGACUGCC here?
Answer: 0.5

Question: For AGCAGAGCUCCACACAGCGGGGCAAAGUGGCUGUGGCUAGACUGCC, which self-cleavage is on record?
Answer: 0.04

Question: Which self-cleavage does the source give for AGCAGCGCUCAACACAGCGUAGCGAAGUGGUCGUGGAUAGACUGAC here?
Answer: 0.02

Question: With AGCCGAGCUCUAAACAGCGUGGAAAAGUGGCUGUGUCUAGACUGCC as the variant, how does the self-cleavage read?
Answer: 0.01

Question: With AGCCGAGCACAACACAGCGAGGCUAAGUGGCUGUGGAUAGACUCCC as the variant, how does the self-cleavage read?
Answer: 0.03

Question: With AGCCGAGCUCAACACAGCGUGGCAAAGUCGCUGUGGCGAGACUGCC as the variant, how does the self-cleavage read?
Answer: 0.01

Question: For AGCAGAGCUCAACGCAGCGUGGCAAAGUGGGUGUCGCUAGACUACC, which self-cleavage is on record?
Answer: 0.05

Question: With AGCAGAGCUCUACAUAGCGUGGCAAAGUGGCUGUGGCAAGACGGCC as the variant, how does the self-cleavage read?
Answer: 0

Question: For AGCAGAGCUCAACCCAGCGUGGCAAAGUGGCUCUGGCUAGACUGCC, which self-cleavage is on record?
Answer: 0.02

Question: Which self-cleavage does the source give for AGCAGAGCUCAUCACAGCGUGCCAAAGUGGCUGUGGCUAGACUACC here?
Answer: 0.09

Question: Which self-cleavage does the source give for AGCAGAGCUCAGCCCAGCGUGUCAAAGUGGCUGUGGCUAGGCUGCC here?
Answer: 0.01

Question: Which self-cleavage does the source give for AGCAGAGCUCAACCCUGCGUGGCAAAGUGGCUGUGGCUAGACUGCC here?
Answer: 0.03

Question: For AGCAGAGCUCUACACAGCGUGGCAAAGUGGCUGUGGCCAGACUGCC, which self-cleavage is on record?
Answer: 0.06

Question: For AGCGGAGCUAAACACAGCGUGGCAAAGUGGCUAUGGCUAGACCGCC, which self-cleavage is on record?
Answer: 0.02

Question: With AGCAGAGCUCGACAUAGGGUGGCAAAGUGGCUUUGGCGAGACUGCC as the variant, how does the self-cleavage read?
Answer: 0.03

Question: With AGCAGAGCUCAACACAGCGUGGCAUAGAGGCUGUGGCUAGACUGCC as the variant, how does the self-cleavage read?
Answer: 0.17
